{"source": "paper PMC4336329", "about": "(PLoS ONE, 2015)", "note": "In all, about 310,000 compounds went through this assay and about 2,200 (0.71%) showed an effect of 50% or more. The effect is printed as a negative number. The list shows a part of the results."}
{"biological_target": "human ether-à-go-go-related gene (hERG) potassium channel (human, UniProt Q12809)", "sequence (Q12809 whole entry, looked up)": "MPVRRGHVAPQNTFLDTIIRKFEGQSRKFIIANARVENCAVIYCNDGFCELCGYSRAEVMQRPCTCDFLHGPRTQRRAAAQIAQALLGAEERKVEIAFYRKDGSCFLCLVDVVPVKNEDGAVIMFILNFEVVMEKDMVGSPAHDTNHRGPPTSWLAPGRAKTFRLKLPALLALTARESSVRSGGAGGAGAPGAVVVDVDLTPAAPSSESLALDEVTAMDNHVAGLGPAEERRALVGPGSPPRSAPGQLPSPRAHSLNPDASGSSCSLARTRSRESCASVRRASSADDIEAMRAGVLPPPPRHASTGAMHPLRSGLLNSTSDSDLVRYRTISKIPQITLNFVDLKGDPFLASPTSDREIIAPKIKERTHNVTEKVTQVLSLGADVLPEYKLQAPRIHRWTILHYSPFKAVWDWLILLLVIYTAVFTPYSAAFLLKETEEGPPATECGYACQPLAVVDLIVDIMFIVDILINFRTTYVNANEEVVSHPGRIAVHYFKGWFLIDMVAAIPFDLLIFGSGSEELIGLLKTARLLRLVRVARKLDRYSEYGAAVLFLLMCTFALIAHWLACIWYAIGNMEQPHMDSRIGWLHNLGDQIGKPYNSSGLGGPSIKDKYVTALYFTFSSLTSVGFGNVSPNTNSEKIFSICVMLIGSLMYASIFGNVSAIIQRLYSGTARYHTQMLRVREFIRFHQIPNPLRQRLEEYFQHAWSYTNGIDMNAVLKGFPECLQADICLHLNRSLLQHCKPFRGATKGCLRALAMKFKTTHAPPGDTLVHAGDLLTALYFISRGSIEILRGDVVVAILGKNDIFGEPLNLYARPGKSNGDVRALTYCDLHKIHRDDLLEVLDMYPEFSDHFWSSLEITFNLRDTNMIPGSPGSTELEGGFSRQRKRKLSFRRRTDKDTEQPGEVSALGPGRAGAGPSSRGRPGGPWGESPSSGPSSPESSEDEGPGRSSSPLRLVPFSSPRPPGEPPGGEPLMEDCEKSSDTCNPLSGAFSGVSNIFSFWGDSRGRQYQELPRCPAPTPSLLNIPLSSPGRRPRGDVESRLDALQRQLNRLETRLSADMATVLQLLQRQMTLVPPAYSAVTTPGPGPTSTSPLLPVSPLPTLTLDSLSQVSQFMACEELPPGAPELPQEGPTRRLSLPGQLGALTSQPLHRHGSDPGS", "assay": "primary screen, population patch clamp on CHO cells stably expressing hERG", "units": {"hERG current change (%, negative = inhibition) at 1uM": "%"}}
{"smiles": "CCOC(=O)C1CCCN(C/C(O)=C(\\C#N)c2nc(-c3ccc(Cl)cc3)cs2)C1", "note": "(centres unmarked)", "hERG current change (%, negative = inhibition) at 1uM": -5.57}
{"smiles": "CCCOc1ccc(C(=O)CCC(=O)NNC(=O)c2cccs2)cc1", "hERG current change (%, negative = inhibition) at 1uM": 8.59}
{"smiles": "CCOc1ccc(NC(=O)c2cnccn2)cc1", "hERG current change (%, negative = inhibition) at 1uM": 11.9}
{"smiles": "O=[N+]([O-])c1ccc(C[n+]2cccc3c4ccccc4ccc32)cc1.[Br-]", "hERG current change (%, negative = inhibition) at 1uM": -18}
{"smiles": "CCc1nnc(NC(=O)c2ncc(Cl)c(Cl)c2Cl)s1", "hERG current change (%, negative = inhibition) at 1uM": 10.6}
{"smiles": "COc1cccc2cccc(/C=N/n3cnnc3)c12", "hERG current change (%, negative = inhibition) at 1uM": -0.812}
{"smiles": "CCOC(=O)C1CCN(C(=O)c2cc(-c3ccncc3)nc3ccccc23)CC1", "hERG current change (%, negative = inhibition) at 1uM": -30.5}
{"smiles": "O=C(/C=C/c1cccc([N+](=O)[O-])c1)Nc1ccc(Cl)cn1", "hERG current change (%, negative = inhibition) at 1uM": 8.73}
{"smiles": "O=C(Cn1c(O)c(N=NC(=O)c2ccncc2)c2ccccc21)Nc1ccccc1", "hERG current change (%, negative = inhibition) at 1uM": -5.6}
{"smiles": "COc1ccc(NC(=O)c2cccc3c2C(=O)N(CC2CCCO2)C3)cc1OC", "note": "(centres unmarked)", "hERG current change (%, negative = inhibition) at 1uM": -3.03}
{"smiles": "CC(=O)c1ccc(N2CCN(C(=O)c3ccc(Br)cc3)CC2)c(F)c1", "hERG current change (%, negative = inhibition) at 1uM": -20.3}
{"smiles": "CN(c1ccccc1)S(=O)(=O)c1cccc(NC(=O)c2ccncc2)c1", "hERG current change (%, negative = inhibition) at 1uM": 0.144}
{"smiles": "CCOc1ccc(S(=O)(=O)NC(C)C)cc1C(N)=O", "hERG current change (%, negative = inhibition) at 1uM": 19.5}
{"smiles": "COc1cccc2cc(C(=O)NCc3ccc(Cl)cc3)c(=O)oc12", "hERG current change (%, negative = inhibition) at 1uM": 12.9}
{"smiles": "CCc1c2c(nc3ccc(OC(=O)N4CCC(N5CCCCC5)CC4)cc13)-c1cc3c(c(=O)n1C2)COC(=O)[C@]3(O)CC.Cl.O", "hERG current change (%, negative = inhibition) at 1uM": 14.7}
{"smiles": "CC(=O)OC1CC(C)N(C(=O)c2ccccc2)c2ccc(C)cc21", "note": "(centres unmarked)", "hERG current change (%, negative = inhibition) at 1uM": 10.1}
{"smiles": "Cc1cccc[n+]1CC(=O)Nc1ccc([N+](=O)[O-])cc1.[Cl-]", "hERG current change (%, negative = inhibition) at 1uM": 16.9}
{"smiles": "CCCCCCc1cc2cc(-c3nnc(-c4ccccc4)o3)c(=O)oc2cc1O", "hERG current change (%, negative = inhibition) at 1uM": 6.28}
{"smiles": "Cc1cc(C(=O)COC(=O)Cc2n[nH]c(=O)c3ccccc23)c(C)n1-c1cccc(C(F)(F)F)c1", "hERG current change (%, negative = inhibition) at 1uM": 2.72}
{"smiles": "Cc1ccc(S(=O)(=O)N2CC(C)C(=O)CC2C)cc1", "note": "(centres unmarked)", "hERG current change (%, negative = inhibition) at 1uM": 13.9}
{"smiles": "O=C(COC(=O)c1cc([N+](=O)[O-])ccc1NCCO)c1ccccc1", "hERG current change (%, negative = inhibition) at 1uM": 1.96}
{"smiles": "O=C(NCCSc1ccccn1)c1ccc(Cl)cc1Cl", "hERG current change (%, negative = inhibition) at 1uM": 4.3}
{"smiles": "CC(NC(=O)c1cc2ccccc2o1)C(=O)O", "note": "(centres unmarked)", "hERG current change (%, negative = inhibition) at 1uM": 11.2}
{"smiles": "Cc1nonc1OCC(C)(COc1nonc1C)NC(=O)c1ccc(Cl)cc1", "hERG current change (%, negative = inhibition) at 1uM": -6.2}
{"smiles": "O=c1c(C(c2ccccc2)c2c(O)nc3n(c2=O)CCS3)c(O)nc2n1CCS2", "hERG current change (%, negative = inhibition) at 1uM": 9.9}
{"smiles": "COc1ccc(/C=C/C(=O)Oc2ccc(C)c(C)c2)cc1OC", "hERG current change (%, negative = inhibition) at 1uM": -1.74}
{"smiles": "Cc1nnc(N)s1", "hERG current change (%, negative = inhibition) at 1uM": 9.41}
{"smiles": "Cc1cc(C)nc(SCC(=O)NN=C2CCCC2)n1", "hERG current change (%, negative = inhibition) at 1uM": 10.2}
{"smiles": "CN(C)C(CNC(=O)c1ccc(NC(=O)CC#N)cc1)c1ccccc1", "note": "(centres unmarked)", "hERG current change (%, negative = inhibition) at 1uM": 4.16}
{"smiles": "COc1ccc(N2C(=O)CC(C)(C)CC2=O)cc1OC", "hERG current change (%, negative = inhibition) at 1uM": 11.1}
{"smiles": "O=C(NCc1ccco1)C1CCN(S(=O)(=O)c2ccc(-n3cnnn3)cc2)CC1", "hERG current change (%, negative = inhibition) at 1uM": -62.1}
{"smiles": "CCN(CC(=O)Nc1ccc(NC(C)=O)cc1)C(=O)Cc1cccc2ccccc12", "hERG current change (%, negative = inhibition) at 1uM": 0.896}
{"smiles": "Cc1ccc(OCCC(=O)N(CC(=O)Nc2ccccc2C(F)(F)F)Cc2ccco2)cc1", "hERG current change (%, negative = inhibition) at 1uM": 10.5}
{"smiles": "O=C(C1=C[C@@H](C2CC2)C[C@@H](OCc2ccc(CO)cc2)O1)N1CCN(Cc2ccc3c(c2)OCO3)CC1", "hERG current change (%, negative = inhibition) at 1uM": -9.63}
{"smiles": "O=S(=O)(c1ccc(S(=O)(=O)N2CCC(O)CC2)cc1)N1CCCC1", "hERG current change (%, negative = inhibition) at 1uM": 19}
{"smiles": "CSc1nc2ccc(NC(=O)c3cc4ccccc4o3)cc2s1", "hERG current change (%, negative = inhibition) at 1uM": 17.2}
{"smiles": "COc1ccc(CN2C(=O)/C(=C/c3ccncc3)SC2=S)cc1", "hERG current change (%, negative = inhibition) at 1uM": 13.7}
{"smiles": "Fc1ccc(COc2ccc(C(=S)N3CCCC3)cc2)cc1", "hERG current change (%, negative = inhibition) at 1uM": 13}
{"smiles": "Cc1nn(C)cc1CN(C)C(=O)CCc1nnc(CCC2CCCCC2)o1", "hERG current change (%, negative = inhibition) at 1uM": 6.75}
{"smiles": "N#CC[C@H](Cc1ccccc1)N1CC[C@@H](O)CCC1=O", "hERG current change (%, negative = inhibition) at 1uM": 2.82}
{"smiles": "COc1ccc(OCCSc2nc(C)nc3ccccc23)cc1", "hERG current change (%, negative = inhibition) at 1uM": 26.2}
{"smiles": "Cc1cc(C(=O)CSc2nnc(N)s2)c(C)n1Cc1cccs1", "hERG current change (%, negative = inhibition) at 1uM": 7.32}
{"smiles": "COc1ccc(CCNC(=O)C2=COCCO2)cc1", "hERG current change (%, negative = inhibition) at 1uM": 20.3}
{"smiles": "Cc1cc(NC(CC(C)C)C(=O)O)nc(Cc2ccccc2)n1", "note": "(centres unmarked)", "hERG current change (%, negative = inhibition) at 1uM": 12.6}
{"smiles": "COc1cccc(C2C(C#N)=C(N)OC(C(C)(C)C)=C2C#N)c1", "note": "(centres unmarked)", "hERG current change (%, negative = inhibition) at 1uM": -2.93}
{"smiles": "COc1ccc(C2C(C(=O)N3CCOCC3)CCC(=O)N2c2ccc(OC)cc2)cc1", "note": "(centres unmarked)", "hERG current change (%, negative = inhibition) at 1uM": 17.2}
{"smiles": "Cc1ccc(/C(O)=C2\\C(=O)C(=O)N(c3cc(C)on3)C2c2cccc(Br)c2)cc1", "note": "(centres unmarked)", "hERG current change (%, negative = inhibition) at 1uM": 12.2}
{"smiles": "CCOCc1nnc(NC(=O)CSCc2ccccc2)s1", "hERG current change (%, negative = inhibition) at 1uM": 4.56}
{"smiles": "Cn1c(=O)c2c(nc(N3CCCC3)n2C)n(C)c1=O", "hERG current change (%, negative = inhibition) at 1uM": 12.6}
{"smiles": "CN1CCN(c2ccccc2NC(=O)c2cc(Br)ccc2Cl)CC1", "hERG current change (%, negative = inhibition) at 1uM": -53.1}
{"smiles": "COC(=O)C1=C(C)N(CCc2ccccc2)C(=O)C1(NS(=O)(=O)c1ccc(NC(C)=O)cc1)C(F)(F)F", "note": "(centres unmarked)", "hERG current change (%, negative = inhibition) at 1uM": -2.49}
{"smiles": "CCOc1ccccc1N1CCN(C(=O)c2c(-c3ccccc3Cl)noc2C)CC1", "hERG current change (%, negative = inhibition) at 1uM": 5.57}
{"smiles": "COCCNC(=O)c1onc(CSc2ccncc2)c1C(=O)NCCOC", "hERG current change (%, negative = inhibition) at 1uM": 22}
{"smiles": "CC(=O)NCCNC(=O)[C@H](Cc1ccccc1)NC(=O)c1cccs1", "hERG current change (%, negative = inhibition) at 1uM": 7.31}
{"smiles": "C=CCOc1ccc(/C=N/N2C(=O)C(CC(=O)Nc3ccc(F)cc3F)SC2=NC)cc1", "note": "(centres unmarked)", "hERG current change (%, negative = inhibition) at 1uM": 17.4}
{"smiles": "COc1cc(/C=N/N2CCN(c3ccccc3)CC2)ccc1OC(C)=O", "hERG current change (%, negative = inhibition) at 1uM": 6.78}
